PubChem BioAssay AID488969 (Vanderbilt High Throughput Screening Facility, 2010)
The full ranking holds about 110,000 compounds; the median of “z-score” is about -0.1, and the highest 2% start at about 2. The list shows a part of the results. Active and inactive are the calls of the source.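 The calls were made as follows: active = z-score in the third read window above 3 or below -3; inactive = the rest.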

The compounds below were run against Metabotropic glutamate receptor 8 (Rattus norvegicus) (UniProt P70579) (assay: rat mGluR8 modulators via GIRK flux, primary screen, cell-based, thallium flux, HTS (AID 488969)). Details: HEK293 rat mGluR8, GIRK (G protein-gated inwardly rectifying potassium channel) thallium flux, FluoZin2; at 10 µM; stronger effect = higher value; submaximal glutamate (EC20) added with thallium.
Chain of UniProt P70579 (P70579 whole entry, looked up): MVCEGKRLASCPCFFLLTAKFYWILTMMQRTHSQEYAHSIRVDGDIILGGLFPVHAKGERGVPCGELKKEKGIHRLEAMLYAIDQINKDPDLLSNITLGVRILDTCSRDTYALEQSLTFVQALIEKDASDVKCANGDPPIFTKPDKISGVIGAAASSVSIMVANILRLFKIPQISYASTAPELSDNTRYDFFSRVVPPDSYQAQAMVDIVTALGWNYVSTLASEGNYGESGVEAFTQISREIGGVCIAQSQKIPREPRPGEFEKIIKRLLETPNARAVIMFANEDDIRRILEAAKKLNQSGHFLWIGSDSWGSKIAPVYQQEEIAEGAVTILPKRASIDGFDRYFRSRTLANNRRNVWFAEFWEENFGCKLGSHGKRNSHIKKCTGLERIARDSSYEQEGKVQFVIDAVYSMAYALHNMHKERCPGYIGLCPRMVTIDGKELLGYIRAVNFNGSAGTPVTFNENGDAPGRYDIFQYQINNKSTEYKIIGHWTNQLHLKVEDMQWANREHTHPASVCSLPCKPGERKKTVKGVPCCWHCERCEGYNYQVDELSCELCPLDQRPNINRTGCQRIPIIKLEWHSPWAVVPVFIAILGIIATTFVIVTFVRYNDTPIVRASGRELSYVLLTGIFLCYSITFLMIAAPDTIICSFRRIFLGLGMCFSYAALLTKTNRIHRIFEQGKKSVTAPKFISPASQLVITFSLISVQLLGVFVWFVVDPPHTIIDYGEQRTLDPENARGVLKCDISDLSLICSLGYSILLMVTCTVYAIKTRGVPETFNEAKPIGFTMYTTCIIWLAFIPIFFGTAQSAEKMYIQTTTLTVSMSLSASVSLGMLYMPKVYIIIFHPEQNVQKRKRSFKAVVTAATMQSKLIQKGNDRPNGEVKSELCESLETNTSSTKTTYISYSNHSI

SMILES | z-score
FC(F)Sc1ccc(Nc2ncnc3nc[nH]c23)cc1 | -1.83
Cc1c(Cl)cnc(NC(=O)COC(=O)c2nn(C)c(=O)c3ccccc23)c1Cl | -0.317
Cc1cccc(NC(=O)CC2SC(=O)N(c3ccccc3)C2=O)c1 (stereo not drawn) | -0.223
Cc1ccccc1NC(=O)CSCC(=O)Nc1ccccc1C | -0.244
Nc1nc(-c2ccco2)cs1 | -0.545
COC(=O)N/N=C/c1ccc(-c2ccc(C)c(Cl)c2)o1 | 0.262
COc1cc(NC(=O)CSc2nnc(C)s2)cc(OC)c1OC | 0.932
COc1ccc(OC)c(/C(O)=C/C(=O)C(=O)Nc2cc(C)cc(C)c2)c1 | 0.571
Cc1oc2ccc(NS(=O)(=O)c3ccc(C(C)(C)C)cc3)cc2c1C(=O)Nc1ccccc1 | 0.22
Cc1noc(/C=C/N(C)C)c1S(=O)(=O)N(C)CC(=O)NC1CCCCC1 | 2.18
COCCn1c(C(C)C)nc2sc3ccccc3c(=O)c2c1=O | 0.0364
O=[N+]([O-])c1ccc(Sc2nccn2Cc2ccccc2)c([N+](=O)[O-])c1 | 0.0289
CCOC(=O)N1CCN(C(=O)c2ccc(NC(C)=O)cc2)CC1 | -0.0525
COc1ccc(NC(=O)C(C)NS(=O)(=O)c2ccccc2)cc1Cl (stereo not drawn) | -0.731
Cc1cc(C(=O)CSc2ccc3c(c2)OCCO3)c(C)n1C1CC1 | -0.14
CC(C)c1cc(Nc2cccc(O)c2)cc(C(C)C)c1O | -1.18
O=C(NN1C(=O)C2C(c3ccccc3)C=CC(c3ccccc3)C2C1=O)c1cccc(Br)c1 (stereo not drawn) | 0.0662
COc1cccc(-c2cc(C(=O)NCCCn3ccnc3)c3ccccc3n2)c1 | -0.128
C=CCN1C(=O)C2C(C(=O)NC3CCCCC3)C3C=CC2(O3)C1C(=O)NC1CCCC1 (stereo not drawn) | -0.014
C=CCn1c(SCC2=C(C(=O)OCC)C(C)NC(=O)N2)nnc1C1CCCCC1 (stereo not drawn) | 0.263
CCOC(=O)c1nn(-c2cccc(C)c2)c2nnc(Cc3ccc(C)cc3)c(=O)n12 | -0.383
Cn1cc(C(=O)N/N=C/C(Br)=C/c2ccccc2)ccc1=O | 0.256
Cc1ccc(-c2cc3nc(-c4ccccc4)cc(N4CCOCC4)n3n2)cc1 | -0.0584

SMILES | z-score
CCn1c(O)c(C=NCCN2CCOCC2)sc1=S | 0.651
CCOc1ncccc1C(=O)OCc1nnc(-c2ccccc2)o1 | -0.473
CC(=O)c1ccc(NC(=O)CSc2nc3nc(C)cc(C)n3n2)cc1 | 0.986
O=C1CN=C(Nc2ccccc2Cl)N1c1ccccc1 | 1.48
CN(C(=O)COc1ccccc1)c1nnc(-c2cccnc2)s1 | 0.536
Cc1ccc(/C=C2\SC(=S)N(CC(=O)Nc3ncc(Cc4ccccc4Cl)s3)C2=O)cc1 | 0.225
CCC(C(=O)OCC(=O)Nc1c(Cl)cc(Cl)cc1Cl)c1ccccc1 (stereo not drawn) | -0.499
Cc1ccc(OCc2nnc(SCc3nc4ccccc4[nH]3)n2Cc2ccco2)cc1 | -0.988
COc1ccc(N2CCN(C(=O)CCS(=O)(=O)c3cccc4nsnc34)CC2)cc1 | -0.17
Cc1nn(-c2ccccc2)c(C)c1/C=N/N1CCN(c2ccccc2)CC1 | -0.131
O=C(CN1CCN(Cc2ccccc2Cl)C1=O)NC1CCCCCCC1 | -0.115
CCOc1ccc(S(=O)(=O)NCCOC)cc1C | -0.211
CCOC(=O)C1CCN(C(=O)CSc2cc(=O)n(C)c3ccccc23)CC1 | 0.053
CCC(=O)Nc1nc2nc(-c3ccccc3)cc(-c3ccccc3)n2n1 | -0.499
CC1CCN(C(=O)C2CCN(S(=O)(=O)c3cccnc3)CC2)CC1 | 2.03
CC(C)n1c(CCC(=O)O)ccc1-c1ccccc1 | 2.11
COc1ccc2cc(C#N)c(N3CCN(Cc4nnnn4CCC(C)C)CC3)nc2c1 | -0.783
CN(c1ccc(OCC(=O)OCC(=O)Nc2c(F)c(F)c(F)c(F)c2F)cc1)S(=O)(=O)c1ccc(F)cc1 | -0.205
Cn1c(SCC(=O)N/N=C/C=C\c2ccccc2[N+](=O)[O-])nc2ccccc21 | -0.125
COC(=O)c1cccc(S(=O)(=O)N2CCN(c3nc4ccccc4s3)CC2)c1 | 0.221
Cn1cnnc1SCC(=O)c1ccco1 | -0.0234
Oc1[nH]c2c(Cl)cc(Cl)cc2c1N=NC(=S)NCC1CCCO1 (stereo not drawn) | active: 7.5
Cc1ccc(C)c(NC(=S)NC(NC(=O)Cc2cccc3ccccc23)C(Cl)(Cl)Cl)c1 (stereo not drawn) | -0.117

SMILES | z-score
O=C(Nc1ccc(O)c(-c2nc3ccccc3s2)c1)c1cccs1 | 0.00864
COc1ccc(C2N(C(=O)CN3CCOCC3)CCN2S(=O)(=O)c2ccccc2)cc1 (stereo not drawn) | -0.0647
Cc1cnc(NC(=O)CSc2nc3ccccc3c(=O)[nH]2)s1 | 2.14
CC1Cc2nc(SCC(=O)Nc3ccccc3F)n(C)c(=O)c2S1 (stereo not drawn) | -1.41
Cc1cc(C(=O)c2ccc(Cl)cc2)c(NC(=O)CCl)s1 | 0.0429
O=S(=O)(NCC(c1cccnc1)N1CCN(c2ccc(F)cc2)CC1)c1ccc(F)cc1 (stereo not drawn) | 0.938
O=C(/C=C/c1ccccc1)N/C(=C/c1ccccc1)C(=O)Nc1ccc(C(=O)O)cc1 | -0.513
OC1(CN2CCOCC2)C2CN3CCN(C2)CC1(c1ccccc1)C3 (stereo not drawn) | -1.52
CCc1cc2c(=O)c(-c3cnn(-c4ccccc4)c3)c(C)oc2cc1OCC(=O)Nc1cccc(C)c1 | -0.139
COc1ccc(-n2c(=O)cc(N3CC(C)OC(C)C3)[nH]c2=O)cc1 (stereo not drawn) | -0.209
CC(C)Cc1ccc(C(C)C(=O)N2CCOCC2)cc1 (stereo not drawn) | 0.407
Cc1cc2nsnc2c(S(=O)(=O)NCC(=O)O)c1C | -0.0223
COc1ccc(-c2n[nH]c(C)c2-c2cnn(-c3ccccc3)c2)c(O)c1 | -0.418
O=C(Oc1ccc(N2C(=O)CCC2=O)cc1)c1ccccc1 | -0.0302
NC(=O)Cn1nnc(-c2ccc(C(F)(F)F)cc2)n1 | -0.168
O=C(NC1CCCCC1)C(c1ccc2ncccc2c1)N(Cc1ccccc1)C(=O)c1ccc2c(c1)OCCO2 (stereo not drawn) | -0.187
COCCn1c(C)cc(C(=O)COC(=O)c2ccc(NC(=O)CC#N)cc2)c1C | -0.449
O=C(NCCc1ccccc1)C1CCN(C(=O)NCc2ccccc2)CC1 | -0.0603
O=C(c1ccncc1)N(Cc1cc2ccccc2[nH]c1=O)C1CCCCC1 | -0.0946
COc1cc(CNCc2ccncc2)cc(Br)c1OCc1ccccc1F | -0.125
CC(C)CC(NS(=O)(=O)c1ccc2c(c1)oc(=O)n2C)C(=O)NC1CCCc2ccccc21 (stereo not drawn) | active: 5.09
C=C(C(=O)c1ccccc1)C(C)C(=C)C(=O)c1ccccc1 | -0.457
